According to US20070218061A1:

Target: HeV and NiV F and G envelope glycoproteins (on effector cells)
Assay: cell-based or functional assay

B1: B2EC-FC (Fc fusion)
chain: IVLEPIYWNSSNSKFLPGQGLVLYPQIGDKLDIICPKVDSKTVGQYEYYKVYMVDKDQADRCTIKKENTPLLNCAKPDQDIKFTIKFQEFSPNLWGLEFQKNKDYYIISTSNGSLEGLDNQEGGVCQTRAMKILMKVGQDASSAGSTRNKDPTRRPELEAGTNGRSSTTSPFVKPNPGSSTDGNSAGHSGNNILGSEVDP[human IgG1 Fc not spelt out]
% fusion (cell fusion assay), 0.1 µg/ml inhibitor: 84%
% fusion (cell fusion assay), 1.0 µg/ml inhibitor: 96%
% fusion (cell fusion assay), 10 µg/ml inhibitor: 30.7%
% fusion (cell fusion reporter gene assay, beta-Gal), 10 µg/ml protein: 15.2%
